Data taken from a collection of fitness landscapes (doi:10.1126/science.1257360).
The other results are listed elsewhere or left out.

B1: PhoQ; a variant is named by its letters at X, in order, P23837 (parent)
chain: MKKLLRLFFPLSLRVRFLLATAAVVLVLSLAYGMVALIGYSVSFDKTTFRLLRGESNLFYTLAKWENNKLHVELPENIDKQSPTMTLIYDENGQLLWAQRDVPWLMKMIQPDWLKSNGFHEIEADVNDTSLLLSGDHSIQQQLQEVREDDDDAEMTHSVAVNVYPATSRMPKLTIVVVDTIPVELKSSYMVWSWFIYVLSANLLLVIPLLWVAAWWSLRPIEALAKEVRELEEHNRELLNPATTRELTSLVRNLNRLLKSERERYDKYRTTLTDLTHSLKTPLXXLQXXLRSLRSEKMSVSDAEPVMLEQISRISQQIGYYLHRASMRGGTLLSRELHPVAPLLDNLTSALNKVYQRKGVNISLDISPEISFVGEQNDFVEVMGNVLDNACKYCLEFVEISARQTDEHLYIVVEDDGPGIPLSKREVIFDRGQRVDTLRPGQGVGLAVAREITEQYEGKIVAGESMLGGARMEVIFGRQHSAPKDE

Variants of: B1
Assay: enrichment ratio after two sorts for PhoP signalling (ratio (wild type AVST 3.29)); higher = more functional
Settings: with PhoP (E. coli)

Row | Variant | enrichment ratio
1 | MNCC | 1.16
2 | KTNN | ≤ 0.25
3 | EQSW | ≤ 0.25
4 | KSCL | ≤ 0.25
5 | REHK | ≤ 0.25
6 | KAQK | ≤ 0.25
7 | NTDY | ≤ 0.25
8 | RTIL | ≤ 0.25
9 | QFHF | ≤ 0.25
10 | WPGK | ≤ 0.25
11 | QDCR | ≤ 0.25
12 | KPKS | ≤ 0.25
13 | FLGF | ≤ 0.25
14 | DQVP | ≤ 0.25
15 | NRDD | ≤ 0.25
16 | FQSS | ≤ 0.25
17 | HDWP | ≤ 0.25
18 | FCVE | ≤ 0.25
19 | RNRL | ≤ 0.25
20 | FCRW | ≤ 0.25
21 | IRIH | ≤ 0.25
22 | FNSH | ≤ 0.25
23 | SKDN | ≤ 0.25
24 | SDDC | ≤ 0.25
25 | YHCE | ≤ 0.25
26 | HCFK | ≤ 0.25

Row | Variant | enrichment ratio
27 | KPRF | ≤ 0.25
28 | DYWA | ≤ 0.25
29 | IFCY | ≤ 0.25
30 | QCGN | ≤ 0.25
31 | MESR | ≤ 0.25
32 | QMKA | ≤ 0.25
33 | VTYC | ≤ 0.25
34 | FFST | ≤ 0.25
35 | QFAH | ≤ 0.25
36 | SPFS | ≤ 0.25
37 | PHDH | ≤ 0.25
38 | AVGF | 11
39 | THAM | 18.6
40 | IESH | ≤ 0.25
41 | CLAM | ≤ 0.25
42 | ARQW | ≤ 0.25
43 | TSVD | ≤ 0.25
44 | LLHE | ≤ 0.25
45 | HGIN | ≤ 0.25
46 | FGMY | ≤ 0.25
47 | VPMT | ≤ 0.25
48 | EYFG | ≤ 0.25
49 | VSIF | ≤ 0.25
50 | KWTF | ≤ 0.25
51 | VEWA | ≤ 0.25
52 | PVRI | ≤ 0.25

Row | Variant | enrichment ratio
53 | VTTM | 16.4
54 | YTVW | ≤ 0.25
55 | HSQG | ≤ 0.25
56 | TPQY | ≤ 0.25
57 | ESLQ | ≤ 0.25
58 | AAME | 30.8
59 | TSCP | ≤ 0.25
60 | DGPR | ≤ 0.25
61 | SHKV | ≤ 0.25
62 | WAYT | ≤ 0.25
63 | QGIS | ≤ 0.25
64 | HKIQ | ≤ 0.25
65 | SWFA | ≤ 0.25
66 | HSSV | 0.35
67 | LWRC | ≤ 0.25
68 | YFQI | ≤ 0.25
69 | PRVL | ≤ 0.25
70 | KQMR | ≤ 0.25
71 | EALY | ≤ 0.25
72 | EFPY | ≤ 0.25
73 | GPRM | ≤ 0.25
74 | SELD | 14
75 | LPMW | ≤ 0.25
76 | YNHR | ≤ 0.25
77 | EGYW | ≤ 0.25
78 | EFFE | ≤ 0.25

Row | Variant | enrichment ratio
79 | HRHF | ≤ 0.25
80 | NQIQ | ≤ 0.25
81 | NYVK | ≤ 0.25
82 | WPLP | ≤ 0.25
83 | WTRC | ≤ 0.25
84 | VSKV | ≤ 0.25
85 | SEAV | 13.6
86 | QQWL | 11.7
87 | RGLS | ≤ 0.25
88 | GYCW | ≤ 0.25
89 | YIMY | ≤ 0.25
90 | SNPW | ≤ 0.25
91 | FARL | ≤ 0.25
92 | YDAA | ≤ 0.25
93 | WLGR | ≤ 0.25
94 | YHIF | ≤ 0.25
95 | RSSH | ≤ 0.25
96 | MNLL | 12.4
97 | LPSS | ≤ 0.25
98 | TNKH | ≤ 0.25
99 | MMFW | ≤ 0.25
100 | YMRM | ≤ 0.25
101 | SESD | 9.24
102 | GHGW | ≤ 0.25
103 | PNML | ≤ 0.25
104 | VVMD | ≤ 0.25

Row | Variant | enrichment ratio
105 | PGWF | ≤ 0.25
106 | QEIC | ≤ 0.25
107 | MKFA | ≤ 0.25
108 | FVDI | ≤ 0.25
109 | SFAQ | 0.83
110 | AAGY | ≤ 0.25
111 | VDNT | ≤ 0.25
112 | APCW | 4.08
113 | MLHM | 4.25
114 | QVCH | ≤ 0.25
115 | YKWG | ≤ 0.25
116 | KCDR | ≤ 0.25
117 | IWMP | ≤ 0.25
118 | VELQ | 3.33
119 | KGGN | ≤ 0.25
120 | QSSQ | 11.3
121 | SAWN | 4.82
122 | IPCW | ≤ 0.25
123 | DHPY | ≤ 0.25
124 | FQMH | ≤ 0.25
125 | WVRG | ≤ 0.25
126 | YRDQ | ≤ 0.25
127 | AGFT | ≤ 0.25
128 | YVYP | ≤ 0.25
129 | GRQQ | ≤ 0.25
130 | HQQI | ≤ 0.25

Row | Variant | enrichment ratio
131 | LCFH | ≤ 0.25
132 | AVMR | 8.76
133 | SWNL | ≤ 0.25
134 | PKDD | ≤ 0.25
135 | ARIP | ≤ 0.25
136 | IYMI | ≤ 0.25
137 | ILVL | ≤ 0.25
138 | DQSG | ≤ 0.25
139 | MHYP | ≤ 0.25
140 | ADAR | ≤ 0.25
141 | PALV | ≤ 0.25
142 | IHSR | ≤ 0.25
143 | LKFW | ≤ 0.25
144 | VQEP | ≤ 0.25
145 | EYPD | ≤ 0.25
146 | LTDM | ≤ 0.25
147 | DADA | ≤ 0.25
148 | IVTY | ≤ 0.25
149 | QVTH | ≤ 0.25
150 | ALQM | ≤ 0.25
151 | HCPY | ≤ 0.25
152 | YILR | ≤ 0.25
153 | RDWD | ≤ 0.25
